Test results: PubChem BioAssay AID686979 (National Center for Advancing Translational Sciences (NCATS), 2013)
“And” between values parts separate entries of the source, which are not always exact repeats. Equal values may be shown once. In all, about 420,000 compounds went through this assay and about 50,000 (12%) were called active. The inconclusive results got no clear call from the source; some entries with a clear call stand among them for comparison. Calls follow the shape of the dose curve; as a rule, active = well fitted inhibition curve with a large enough effect; inconclusive = small, poorly fitted or top-dose-only effect; inactive = flat fitted curve, though single readings scatter. Potencies of inconclusive entries are doubtful fits and often do not repeat.

Test: qHTS for Inhibitors of human tyrosyl-DNA phosphodiesterase 1 (TDP1): qHTS in cells in presence of CPT; also: nearly all actives have a fitted effect of over 55% in size
Settings: chicken DT40 Tdp1-/-;hTDP1 cells + 20 nM CPT, ATP luminescence, 48 h; activity change, negative = growth inhibition: at 46.2 µM (top of the series) unless noted
Procedure, shortened: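 Chicken DT40 Tdp1-/- cells complemented with human TDP1, 400 cells/well, exposed to compounds plus 20 nM camptothecin for at least 48 h at 37 C; viability read as ATP content by CellTiter-Glo luminescence.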
% is scaled to controls: 0 for no effect and ±100 for the full control effect; potency is read from the fitted curve at half-maximal effect; tags tell the direction and shape of the fitted curve.

SMILES | activity change, negative = growth inhibition | Potency
CCN(CC(=O)NCc1ccc(Cl)cc1)C(=O)Cc1ccc(OC)cc1 | inactive: -1.71% | 
Cc1ccc(C)c(OCCC(=O)NCCc2ccc(F)cc2)c1 |  | inconclusive: 29.1 µM [inhibitor, single point]
Cc1ccc(S[C@@H](CCN2CC[C@H](C)CCC2=O)c2ccccc2)cc1 |  | inconclusive: 28.2 µM [inhibitor, single point] and inconclusive: 25.9 µM [inhibitor, single point]
CCc1nc2c(OCCOc3ccc(F)cc3)cccn2c1N(C)C(=O)c1ccco1 |  | active: 20.6 µM
COc1ccccc1-c1ccc2c(c1)C(C)(Cc1ccc(OC(F)(F)F)cc1)C(=O)N2 (stereo unspecified) |  | inconclusive: 18.4 µM [inhibitor, single point]
COc1ccc(C(C)=O)cc1CSc1nc2ccccc2c(=O)n1-c1ccccc1 |  | inconclusive: 29.1 µM [inhibitor, single point]
Cc1cccc(OCC(=O)Nc2ccc3nc(Nc4cccc(C(F)(F)F)c4)cc(C)c3c2)c1 |  | active: 20.6 µM
CCCCN1C(=O)CN(C2CCCCCC2)C(=O)C1c1ccc(OC(C)C)c(OC)c1 (stereo unspecified) |  | inconclusive: 29.1 µM [inhibitor, single point]
Cc1cc(C(=O)CN2C(=O)NC3(CCCCC3)C2=O)c(C)n1-c1ccc2c(c1)OCO2 |  | inconclusive: 20.6 µM [inhibitor, single point]
O=C(C[n+]1cccc(Br)c1)c1ccc2c(c1)CCCC2 |  | inconclusive: 22.4 µM [inhibitor, single point]
O=C(/C=C/c1ccc[nH]1)c1ccccc1 |  | active: 25.9 µM
Cn1c(SCc2ccc(C#N)cc2)nnc1-c1ccncc1 | inactive: -2.15% | 
CSc1nnnc2ccccc12 | inactive: 11.1% | 
CC(=O)C1(O)CCC2C3CC(C)C4=CC(=O)C=CC4(C)C3(F)C(O)CC21C (stereo unspecified) |  | inconclusive: 32.6 µM [inhibitor, single point]
COCCCNC(=O)c1c(N)n(-c2ccc3c(c2)OCO3)c2nc3ccccc3nc12 |  | inconclusive: 32.6 µM [inhibitor, single point]
Cc1cc(C)n2nc(-c3ccco3)nc2n1 | inactive: 3.83% | 
CCCCNC(=O)c1cc2c(=O)n3cccc(C)c3nc2s1 |  | inconclusive: 23.1 µM [inhibitor, single point] and inconclusive: 29.1 µM [inhibitor, single point]
Cc1cccc(-n2c(Cc3ccccc3)n[nH]c2=S)c1 | inactive: 6.18% | 
COc1ccccc1CNC(=O)c1ccc2c(c1)N(Cc1cc(C)ccc1C)C(=O)c1ccccc1S2 |  | active: 9.2 µM
CCOCCC(=O)Nc1ncc(S(=O)(=O)c2ccc([N+](=O)[O-])cc2)s1 | inactive: 0.409% | 
O=C(O)c1cc2c(ncc3c(=O)n(-c4ccccc4)[nH]c32)s1 | inconclusive: -33.2% [inhibitor] | 
COc1cc(Cl)c(C)cc1NC(=O)CN(C)Cc1cccc(OC)c1OC |  | inconclusive: 16.4 µM [inhibitor, single point]
CCOc1ccc(CCNC(=O)c2ccc(CS(=O)Cc3ccc(Cl)cc3)o2)cc1OCC (stereo unspecified) |  | inconclusive: 29.1 µM [inhibitor, single point]
CCC(CC)c1nnc(NC(=O)c2cccnc2SC)s1 | inactive: -6.77% | 

SMILES | activity change, negative = growth inhibition | Potency
COc1ccc(C(=O)OCC(=O)c2c[nH]c3ccccc23)c(OC)c1 |  | inconclusive: 23.1 µM [inhibitor, single point]
NS(=O)(=O)c1ccc(CCNC(=O)c2cccnc2)cc1 | inactive: -19.2% | 
CCn1cc(C(=O)O)c(=O)c2cc(F)c(N3CCN(C(=S)NC(=O)c4cc(OC)cc(OC)c4)CC3)cc21 |  | inconclusive: 29.1 µM [inhibitor, single point]
COc1ccc(CSc2nnc(Cc3sc(-c4ccccc4)nc3-c3ccccc3)o2)cc1 | inconclusive: -30.2% [inhibitor] | 
CCN=C1SC(CC(=O)NCc2ccccc2)C(=O)N1CC (stereo unspecified) | inactive: 1.21% | 
COc1ccc(N(CC(=O)NCCSCc2ccccc2C)S(=O)(=O)c2ccccc2)cc1 |  | active: 16.4 µM
CCOc1ccc(NC(=O)Cn2cc(C(=O)c3ccc(F)cc3)c(=O)c3cc4c(cc32)OCCO4)cc1 | inactive: -21% | 
O=C(NC1CCCCC1)C(CCc1ccccc1)N1CCc2ccccc2C1 (stereo unspecified) |  | active: 20.6 µM
COc1ccc(CN2CCCC(C(=O)c3ccc(SC)cc3)C2)cc1Cn1cccn1 (stereo unspecified) |  | inconclusive: 29.1 µM [inhibitor, single point]
CS(=O)(=O)N(CC(=O)NC1CCCC1)Cc1ccc(Cl)cc1 | inactive: -0.102% | 
O=S1(=O)N[C@H](Cc2ccccc2)COc2cc(N3CCN(Cc4ccccc4F)CC3)ccc21 |  | inconclusive: 29.1 µM [inhibitor, single point]
CC1=N/C(=C\c2ccc([N+](=O)[O-])cc2)C(=O)N1c1ccc(Br)c(C)c1 |  | active: 11.6 µM
Cc1ccc(-n2ncc(C(=O)N3CCN(Cc4ccccc4)CC3)c2C2CCN(C(=O)OC(C)(C)C)CC2)cc1 |  | inconclusive: 29.1 µM [inhibitor, single point]
O=C(Cc1csc(Nc2nc(=S)[nH]c3ccccc23)n1)N1CCN(c2cccc(Cl)c2)CC1 |  | active: 14.6 µM
CC(=O)c1cc(-c2ccccc2)n(CCC(=O)Nc2ccc(C(C)C)cc2)c1C |  | active: 8.2 µM
COc1ccc(OC)c(NC(=O)c2nnn(CC(=O)Nc3ccc4c(c3)OCO4)c2N)c1 | inconclusive: -35% [inhibitor] | 
CCN(CC)S(=O)(=O)N1CCC(C(=O)NCCC2=CCCCC2)CC1 |  | inconclusive: 23.1 µM [inhibitor, single point]
CCc1c(C)nc2nc(SCc3ccccc3)[nH]n2c1=O | inactive: 7.64% | 
CCC(=O)Nc1cccc(C2=NN(c3ccccc3)C(c3ccc(OC)cc3)C2)c1 (stereo unspecified) | inactive: -29.9% | 
Cc1ccc(-n2ccnc(NCCc3ccc(S(N)(=O)=O)cc3)c2=O)c(C)c1 |  | inconclusive: 23.1 µM [inhibitor, partial curve]
CCOc1ccc2nc(NC(=O)C3=NN(c4ccccc4)C(=O)CC3)sc2c1 |  | inconclusive: 20.6 µM [inhibitor, single point]
COc1ccc(NC(=O)Cn2cnc3ccc(S(=O)(=O)N4CCC(C)CC4)cc3c2=O)cc1Cl |  | active: 7.31 µM
COc1ccccc1OCCNc1cc(N2CCCCC2)ccc1[N+](=O)[O-] |  | inconclusive: 29.1 µM [inhibitor, single point]
O=C(NCCCN1CCOCC1)c1cccc(S(=O)(=O)N2CCc3ccccc3C2)c1 |  | inconclusive: 20.6 µM [inhibitor, partial curve]

SMILES | activity change, negative = growth inhibition | Potency
COc1ccc2[nH]c3c(=O)n(CCCCC(=O)NCCN4CCCC4)c(=S)[nH]c3c2c1 | inactive: 6.64% | 
Cc1ccc(C(O)c2ncc(-c3ccccc3)[nH]2)c(C)c1 (stereo unspecified) | inconclusive: -32.6% [inhibitor] | 
CN(Cc1ccccc1)C(=O)c1ccc(NC(=O)Cc2cccc(NC(=O)C3CCN(C(=O)C4CCCCC4)CC3)c2)cc1 |  | inconclusive: 20.6 µM [inhibitor, single point]
O=C(NCc1ccco1)c1csc2c1CCCCC2 | inconclusive: -34.1% [inhibitor] | 
CC(C)(C)OC(=O)N1CCC(c2c(C(=O)NCCN3CCCC3)cnn2-c2ccc(Cl)cc2)CC1 |  | inconclusive: 16.4 µM [inhibitor, single point]
C[C@@H]1CN([C@H](C)CO)S(=O)(=O)c2ccc(-c3cccc(C(=O)N(C)C)c3)cc2O[C@H]1CN(C)C(=O)Nc1ccc(F)cc1 |  | inconclusive: 29.1 µM [inhibitor, single point]
CCN1CCCC1CNC(=O)c1cc2cc(F)ccc2[nH]1 (stereo unspecified) | inactive: -20.5% | 
CC(=O)Cc1nsc(NC(=O)c2ccc(COc3ccccc3)o2)n1 | inactive: -4.81% | 
Cc1nn(-c2ccccc2)c(N)c1C1(O)C(=O)N(C)c2ccccc21 (stereo unspecified) |  | active: 23.1 µM
CCOc1ccc(/C=C/c2nc(C#N)c(NC3CCCCC3)o2)cc1 |  | inconclusive: 16.4 µM [inhibitor, single point]
CCCc1cc(=O)[nH]c(SCC(=O)c2cc(C)n(CC(F)(F)F)c2C)n1 | inactive: 8.19% | 
COC(=O)c1c(-c2ccccc2OC)sc2cc3c(cc12)OCO3 |  | inconclusive: 25.9 µM [inhibitor, single point]
CCCn1c(=N)n(CC(O)COc2ccc(C)cc2)c2ccccc21 (stereo unspecified) |  | active: 4.61 µM
CN(Cc1ccccc1)S(=O)(=O)c1ccc(Cl)c(C(=O)NCc2cccnc2)c1 |  | inconclusive: 25.9 µM [inhibitor, single point]
S=C1NCN(Cc2ccccc2)CN1C1CCCCC1 |  | inconclusive: 29.1 µM [inhibitor, single point]
Cc1oc(-c2ccc(C(=O)NCc3ccc(F)cc3)cc2)nc1CS(=O)c1ccccc1 (stereo unspecified) |  | inconclusive: 29.1 µM [inhibitor, single point]
NC(=O)NC(=O)COC(=O)c1sc2ccccc2c1Cl |  | inconclusive: 29.1 µM [inhibitor, single point]
COc1ccc(Cl)cc1NC(=O)CN(C)C(=O)c1cccc(-n2cnnn2)c1 | inactive: -20% | 
CCCCC(O)(c1ccc(OC)cc1)C(CN1CCOCC1)c1ccccc1 (stereo unspecified) |  | active: 18.4 µM
CC12CCCC(CC(=O)O)(C1)NC(=O)C2 (stereo unspecified) | inactive: 11.8% | 
CCOc1ccc(CC(=O)Nc2ccc(NC(=O)c3ccco3)cc2)cc1OCC |  | inconclusive: 20.6 µM [inhibitor, single point]
O=C(CSC1=NS(=O)(=O)c2cc(F)ccc2N1)Nc1cccc(F)c1 | inactive: 13.7% | 
Cc1cccc(NC(=O)CC2C(=O)NCCN2C(=O)Nc2ccc(Cl)cc2)c1 (stereo unspecified) |  | inconclusive: 18.4 µM [inhibitor, single point]
